ChEMBL document CHEMBL1201862, “PubChem BioAssay data set” (2004)
Where “and” joins values, the source holds several entries; their conditions need not be identical. Equal values may be shown once.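 Cells were grown in 96-well plates and exposed to each compound for 48 hours at five concentrations; endpoints were interpolated linearly between bracketing concentrations, or set to the highest concentration if not reached. The concentration for 50% growth inhibition is given as GI50.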 Calls of active or inactive are those of the source. Rule as the data show it: active = GI50 up to about 1.1 µM and inactive = higher.

These compounds were tested on NCI-H322M (assay: NCI tumour cell line growth inhibition, 48 h).
For `Clc1ccc(-c2nnc(-c3cccc4ccccc34)o2)cc1Cl`, the GI50 was inactive: > 100 µM. In the case of `CC(C)C(C/C=C1/CC(CO)(COC(=O)C(C)(C)C)OC1=O)C(C)C` (stereo unspecified), the GI50 is reported as inactive: 13 µM. For `OC(c1cc(-c2ccc(Cl)cc2)nc2ccccc12)C1CCCCN1` (stereo unspecified), the GI50 was inactive: 2.33 µM. With `CC(C)(C)COS(=O)OCC(C)(C)C` the GI50 was inactive: > 100 µM. In the case of `CCN(Cc1cc(Cl)cc(C)c1O)Cc1c(O)ccc2ccccc12`, the GI50 is reported as inactive: 17.4 µM. `[N-]=[N+]=Nc1ccc(CCN2CCN(c3cccc(C(F)(F)F)c3)CC2)cc1I` was tested, and the GI50 was inactive: 87.9 µM. In the case of `COc1ccc2ccccc2c1C1NC(=O)c2ccccc2N1` (stereo unspecified), the GI50 is reported as inactive: 6.21 µM. In the case of `CCC1C(c2cc(OC)c(OC)c(OC)c2)c2cc3c(cc2OC1N1CCCC1)OCO3` (stereo unspecified), the GI50 is reported as inactive: 3.39 µM. In the case of `CN(C)CCNC(=O)c1cccc2ccc(-c3ccc(-c4ccccc4)cc3)nc12`, the GI50 is reported as inactive: 12.3 µM. `Cc1ccc(/C=C2\N=C(N3CCOCC3)NC2=O)cc1` was tested, and the GI50 was inactive: > 100 µM. In the case of `COc1ccc(/C=N/NC(=O)c2ccccc2Nc2ccccc2C(=O)N/N=C/c2ccc(OC)c(OC)c2)cc1OC`, the GI50 is reported as inactive: > 100 µM. `CN(CCn1cnc2c1c(=O)n(C)c(=O)n2C)C1CCCCC1` was tested, and the GI50 was inactive: > 100 µM. With `CC1CC(C)C(=O)C(C(=O)CC2CC(=O)NC2=O)C1` (stereo unspecified) the GI50 was inactive: > 100 µM. In the case of `O=C1Oc2ccccc2C(=O)/C1=C/N1C(=O)N/C(=C\c2cccc(O)c2)C1=O`, the GI50 is reported as inactive: 84.7 µM. For `CCOC(=O)/C=C(/N=P(c1ccccc1)(c1ccccc1)c1ccccc1)C(F)(F)F`, the GI50 was inactive: > 10 µM. For `C#C[C@@H](CCCC)OC(=O)N[C@H](C)c1ccccc1`, the GI50 was inactive: > 100 µM. `CN1CC(C(=O)C2C(=O)c3ccccc3C2=O)C(=O)C(=O)C(C(=O)C2C(=O)c3ccccc3C2=O)C1` (stereo unspecified) was tested, and the GI50 was inactive: > 100 µM. `CC(=O)/C(=N\O)C(=O)NCCc1ccccc1` was tested, and the GI50 was inactive: > 100 µM. With `O=C(O)c1ccccc1SCc1cccc2c(=O)c3ccc(Cl)cc3oc12` the GI50 was inactive: > 50 µM. With `COc1ccc2oc(=N)c(C(=O)Nc3cccc4ccccc34)cc2c1` the GI50 was inactive: 56.8 µM. With `COc1cc(C)cc(C(=O)OCc2ccccc2)c1C1=C(Cl)C(=O)C(Cl)=CC1=O` the GI50 was inactive: > 10 µM. With `O=[N+]([O-])c1ccc(-c2ccc(C3=Nn4c(nnc4-c4ccc(Cl)cc4)SC3)o2)cc1` the GI50 was inactive: > 91.4 µM. With `COc1ccc(NC(=S)NNC(=O)c2nsc3ccccc23)cc1` the GI50 was inactive: 26.2 µM. In the case of `CC(=O)OCc1cc2ccccc2nc1C(Br)(Br)Br`, the GI50 is reported as inactive: 12.8 µM. In the case of `COC(=O)C12C3C4C1C1C2C3C41I` (stereo unspecified), the GI50 is reported as inactive: > 100 µM. In the case of `Cc1cc(C)c2c(c1)CC1(Cc3cc(C)c(C)cc3C1=O)C2=O` (stereo unspecified), the GI50 is reported as inactive: > 100 µM. `c1ccc(N/N=N/c2ccc(-c3nc4ccccc4o3)cc2)nc1` was tested, and the GI50 was inactive: > 100 µM. With `COc1cccc2c1C(=O)OC2c1cccc2ccccc12` (stereo unspecified) the GI50 was inactive: > 60.8 µM. For `C=CN1C(=O)[C@H](Oc2ccccc2)[C@@H]1c1ccccc1`, the GI50 was inactive: 71.9 µM. With `CCOC(=O)c1oc2cc3c(c4c2c1-c1ccccc1N4C)C=CC(C)(C)O3` the GI50 was inactive: 18.8 µM. `CC1=CCCC(OC(N)=O)C1` (stereo unspecified) was tested, and the GI50 was inactive: > 100 µM. `CC1CCN(c2nnc(Cl)cc2C(=O)c2ccccc2)CC1` was tested, and the GI50 was inactive: 49.9 µM. In the case of `Cc1nc(-c2cc3ccccc3oc2=O)cs1`, the GI50 is reported as inactive: > 100 µM. In the case of `O=C1C=CC2CCC1C2` (stereo unspecified), the GI50 is reported as inactive: 29.4 µM. For `CCCOC(=O)C1CCC(=O)N1C(=O)C(Cl)Cl` (stereo unspecified), the GI50 was inactive: > 100 µM. `Cc1cc2nc(CC(C(F)(F)F)C(F)(F)F)oc2cc1C` was tested, and the GI50 was inactive: 3.27 µM. `N#C/C(=C\c1ccc(F)cc1)c1nc2ccccc2c(=O)[nH]1` was tested, and the GI50 was inactive: > 100 µM. In the case of `COC(=O)C1(Cc2ccccc2C)Cc2ccc(C)cc2C1=O` (stereo unspecified), the GI50 is reported as inactive: 61.4 µM. With `CCCCCCCCCCCCCCCCCCOCC(O)COP(=O)(O)OCC1OC(n2cc(F)c(=O)[nH]c2=O)CC1O` (stereo unspecified) the GI50 was active: 0.637 µM. `C/C(CCN(C)C)=N/O` was tested, and the GI50 was inactive: 24.3 µM. In the case of `N[C@H](C(=O)O)[C@@H]1CC(Br)=NO1`, the GI50 is reported as inactive: 14.8 µM. For `COc1ccc2c(c1)NC1(CCN(CCCC(=O)c3ccc(F)cc3)CC1)N=N2`, the GI50 was inactive: 30.4 µM. In the case of `CCOC(=O)C1=C(C)N(C2OC(COC(=O)c3ccccc3)C(OC(=O)c3ccccc3)C2OC(=O)c2ccccc2)C(=S)NC1c1ccccc1` (stereo unspecified), the GI50 is reported as inactive: > 100 µM. In the case of `CC1(C)C2CCC3(C2)CS(=O)(=O)N2OC231` (stereo unspecified), the GI50 is reported as inactive: > 100 µM. For `COC(=O)C1C(O)CCC2CN3CCc4c([nH]c5ccccc45)C3CC21` (stereo unspecified), the GI50 was inactive: > 100 µM and inactive: > 77.3 µM. In the case of `Nc1ncnc2c(C3OC(CO)C(O)C3O)c[nH]c12` (stereo unspecified), the GI50 is reported as active: < 0.0141 µM. For `C[C@@]12CCC3C1C=C1C(=O)c4cc(O)ccc4C(=O)[C@]1(O2)[C@@]3(C)C=O`, the GI50 was inactive: 9.12 µM. For `COc1ccc(C23OCC(Cc4cc(OC)c(OC)cc42)C3CO)cc1OC` (stereo unspecified), the GI50 was inactive: > 100 µM. With `Cc1cc([N+](=O)[O-])c(S(=O)(=O)c2ccccc2)c([N+](=O)[O-])c1` the GI50 was inactive: 15 µM. In the case of `CC(=O)OCC1OC(O[C@H]2C=C[C@@H](C(=O)OCc3ccccc3)n3c(=O)n(-c4ccccc4)c(=O)n32)C(OC(C)=O)C(OC(C)=O)C1OC(C)=O` (stereo partly specified), the GI50 is reported as inactive: 16.8 µM. With `C=C[C@@]1(C)CC(=O)[C@]2(O)[C@@]3(C)[C@@H](OC(C)=O)CCC(C)(C)[C@@H]3[C@H](OC(C)=O)[C@H](OC(C)=O)[C@@]2(C)O1` the GI50 was inactive: > 100 µM. With `C=CCN1C[C@H](C)N([C@H](c2ccc(C(=O)NC(CC)CC)cc2)c2cccc(OC)c2)C[C@H]1C` the GI50 was inactive: 89.3 µM. In the case of `N#CC(c1ccnc(Cl)n1)c1nc2ccccc2s1` (stereo unspecified), the GI50 is reported as inactive: 14.3 µM. For `Cc1ccc(C(=O)N/N=C(\N=N\c2ccccc2)c2ccc(N(CCC#N)CCC#N)cc2C)cc1`, the GI50 was inactive: > 100 µM. With `O=NN(CCCl)C(=O)NCc1ccc[n+]([O-])c1` the GI50 was inactive: > 100 µM. In the case of `Cc1cc(C(=O)N2CCN(Cc3ccccc3)CC2)c(C)o1`, the GI50 is reported as inactive: > 100 µM. With `O=C(N/C=C1\C(=O)Oc2ccccc2C1=O)NC1CCCCC1` the GI50 was inactive: 29 µM. For `CCCC1C(C#N)(C#N)C(C#N)=C(N)C1(C)C(C)=O` (stereo unspecified), the GI50 was inactive: > 100 µM. In the case of `Fc1ccc(Nc2nc(Cl)c3nc[nH]c3n2)cc1Cl`, the GI50 is reported as inactive: 89.3 µM. In the case of `O=[N+]([O-])c1ccc(N2N=C(c3ccc4ccccc4c3O)CC2c2ccc(Cl)cc2Cl)c([N+](=O)[O-])c1` (stereo unspecified), the GI50 is reported as inactive: 41.9 µM. In the case of `Cc1ccc(S(=O)(=O)N(CC(O)COc2ccccc2)c2c(F)cccc2F)cc1` (stereo unspecified), the GI50 is reported as inactive: 27.6 µM. For `CS(=O)(=O)c1ccc(/C=N/NC(N)=S)cc1`, the GI50 was inactive: > 100 µM. In the case of `CC(=O)Nc1ccc(-c2nnc(SCC(=O)Nc3cccc(C)c3)o2)cc1`, the GI50 is reported as inactive: 23.5 µM. For `CC1CC(=O)Nc2cc(Cl)ccc2N1C(=O)C1CC1` (stereo unspecified), the GI50 was inactive: > 100 µM. In the case of `CC(C)(C)C#CI1OC(=O)c2ccccc21`, the GI50 is reported as inactive: 11.7 µM. `C=C(C)[C@@H]1CC[C@]2(C(=O)O)CC[C@]3(C)[C@H](CC[C@@H]4[C@@]5(C)CC[C@H](C(=O)/C=C/c6ccc(O)cc6)C(C)(C)[C@@H]5CC[C@]43C)[C@@H]12` was tested, and the GI50 was inactive: 5.82 µM. `Brc1cccc(C2SCc3nc4ccccc4n32)c1` (stereo unspecified) was tested, and the GI50 was inactive: 36.5 µM. `CN(/N=C1\C(=O)Nc2ccccc21)c1ccccc1` was tested, and the GI50 was inactive: 48.2 µM. In the case of `OCCOCCN1CCN(c2nc(N3CCCC3)c3nc(Cl)c(NCc4ccccc4)nc3n2)CC1`, the GI50 is reported as inactive: 15.6 µM. For `COc1c(C)cc2c(C(C)C)c(O)c(O)c(C=O)c2c1O`, the GI50 was inactive: 22.7 µM. In the case of `O=c1cc(NNc2cccc(Cl)c2)[nH]c(=O)[nH]1`, the GI50 is reported as inactive: > 100 µM. In the case of `Cc1ccc(C2SCC(=O)N2c2ccc(-c3ccc(-n4c(-c5ccccc5)nc5ccccc5c4=O)cc3)cc2)cc1` (stereo unspecified), the GI50 is reported as inactive: > 100 µM. `O=C1Nc2ccccc2C1S(=O)(=O)c1ccccc1` (stereo unspecified) was tested, and the GI50 was inactive: > 100 µM. With `CC(C)(C)c1ccc(OC2CCO2)cc1` (stereo unspecified) the GI50 was inactive: 89.5 µM. For `CC1CCC(O)(C(C)(C(=O)O)c2ccccc2)CC1` (stereo unspecified), the GI50 was inactive: > 100 µM. With `C1CN2CCO[SiH](O1)OCC2` the GI50 was inactive: > 100 µM. In the case of `Cc1c(-c2nnc(-c3ccc(Cl)cc3)o2)c(=O)n(-c2ccccc2)n1C`, the GI50 is reported as inactive: > 100 µM. With `Cc1cc(C)nc(NS(=O)(=O)c2ccc(NNc3c4ccccc4nc4c(C(=O)Nc5ccc(S(=O)(=O)Nc6ncccn6)cc5)cccc34)cc2)n1` the GI50 was inactive: 38 µM. For `C=C1C[C@H](O)[C@H]2C(C[Se]c3ccccc3)C(=O)O[C@@H]2[C@H]2[C@H](C)C(O)C[C@@H]12` (stereo partly specified), the GI50 was inactive: 41.5 µM. In the case of `N#CC1(C#N)NC(c2ccsc2)C(C#N)(C#N)NC1c1ccsc1` (stereo unspecified), the GI50 is reported as inactive: > 100 µM. In the case of `O=C(N/C(=C\c1ccc2c(c1)OCO2)c1nc2ccccc2[nH]1)c1ccccc1`, the GI50 is reported as inactive: 39.4 µM. In the case of `CC(C)N(C(=O)C12C3C4C1C1C2C3C41I)C(C)C` (stereo unspecified), the GI50 is reported as inactive: > 100 µM. In the case of `Cn1c(=O)n2n(c1=O)C([S+]([O-])c1ccccc1)C2` (stereo unspecified), the GI50 is reported as inactive: > 100 µM. With `S=C(N/N=C\C=N/NC(=S)N1CCCCC1)N1CCCCC1` the GI50 was active: 0.791 µM. In the case of `C[C@@]1(Br)C[C@@](C)(Cl)[C@@H](Br)CC1/C=C/Cl` (stereo partly specified), the GI50 is reported as inactive: 19.5 µM. For `COc1ccc(-c2cc(-c3ccc(Nc4ccnc5cc(Cl)ccc45)cc3)[nH]c(=O)c2C#N)c2ccccc12`, the GI50 was inactive: 13.7 µM. In the case of `Cn1cc(NC(=O)Nc2cc(C(=O)Nc3cc(C(=O)Nc4cc(S(=O)(=O)O)c5cc(S(=O)(=O)O)cc(S(=O)(=O)O)c5c4)n(C)c3)n(C)c2)cc1C(=O)Nc1cc(C(=O)Nc2cc(S(=O)(=O)O)c3cc(S(=O)(=O)O)cc(S(=O)(=O)O)c3c2)n(C)c1`, the GI50 is reported as inactive: > 100 µM. `COc1cc(/N=N\c2cccc(S(=O)(=O)O)c2)c(C)cc1/N=N\c1ccc(/C=C/c2ccc(/N=[N+](/[O-])c3ccc(/C=C/c4ccc(/N=N\c5cc(C)c(/N=N/c6cccc(S(=O)(=O)O)c6)cc5OC)cc4)c(S(=O)(=O)O)c3)cc2S(=O)(=O)O)cc1` was tested, and the GI50 was inactive: > 100 µM. With `N#CC1=C(C#N)/C(=C(\C#N)C(C#N)C#N)N=C1N` the GI50 was inactive: 16.4 µM. In the case of `C[C@]1(CO)CCC[C@@]2(C)C1CC[C@H]1CC3C[C@]12CC[C@]3(C)O` (stereo partly specified), the GI50 is reported as inactive: > 100 µM. For `COc1cc(/C=C/c2ccccn2)cc(OC)c1OC`, the GI50 was inactive: > 10 µM.
